According to the supplement of paper PMC8183993:
Where a name gives a salt, the structure may show the parent alone. ± gives the standard deviation of the averaged measurements. The full ranking holds about 3,200 compounds; the median of “nuclei count (viability) relative to DMSO” is about 99, and the lowest 2% start at about 16. Some of the results follow.

tested on: U2OS; assay: nuclei count (viability) relative to DMSO (% of DMSO); higher = more viable cells; details: 10 µM; 24 h
Method: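 Primary image-based screen in U2OS cells: compounds at 10 uM for 24 h, then a 1 h o-propargyl-puromycin (OPP) pulse, click labelling, and high-throughput microscopy. Mean cytoplasmic OPP intensity and nuclei count were normalised to DMSO wells within each plate (DMSO = 100) and averaged over triplicate plates.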

Compound	nuclei count
CCn1c(=O)[nH]c2cc(Cl)c(Cl)cc21	113
CC(=N)NCCCC[C@H](N)C(=O)O [L-NIL hydrochloride]	112
CN1CCc2c(c3ccccc3n2Cc2ccc(C(=O)NO)cc2)C1 [Tubastatin A HCl]	58.9
CC[C@@H]1C(=O)OC[C@@H]1Cc1cncn1C [Pilocarpine nitrate]	109
CC[C@@H]1C(=O)OC[C@@H]1Cc1cncn1C [Pilocarpine hydrochloride]	103
CC(C)(CO)c1cc2cc(NC(=O)C3(c4ccc5c(c4)OC(F)(F)O5)CC3)c(F)cc2n1C[C@@H](O)CO	102
Cc1c(CN2CCN(C(=O)[C@H](C)O)CC2)sc2c(N3CCOCC3)nc(-c3cnc(N)nc3)nc12 [Apitolisib (GDC-0980, RG7422)]	74.8
Cc1cnc(-c2cc(N3CCN(C(=O)CCS(C)(=O)=O)CC3)ncc2Cl)c(C)c1	105
CC(=O)CC(c1ccccc1)c1c(O)c2ccccc2oc1=O (centres undefined) [Warfarin]	89.6
NS(=O)(=O)c1cc2c(cc1Cl)NC(C1CC3C=CC1C3)NS2(=O)=O (centres undefined) [Cyclothiazide]	105
S=C(S)N1CCCC1 [Pyrrolidinedithiocarbamate ammonium]	84.9
CO[C@@H]1[C@@H](O[C@@H]2O[C@H](C)[C@@H](O[C@H]3C[C@@](C)(O)[C@@H](OC(=O)CC(C)C)[C@H](C)O3)[C@H](N(C)C)[C@H]2O)[C@@H](CC=O)C[C@@H](C)[C@@H](O)/C=C/C=C/C[C@@H](C)OC(=O)C[C@H]1OC(C)=O [Josamycin]	92.7
O=c1oc2c(O)c(O)cc3c(=O)oc4c(O)c(O)cc1c4c23 [Ellagic acid]	105
O=c1oc2c(O)c(O)cc3c(=O)oc4c(O)c(O)cc1c4c23 [Ellagic Acid]	99.7
CC(=O)OCC(=O)[C@@]12OC(C)(C)O[C@@H]1C[C@H]1[C@@H]3C[C@H](F)C4=CC(=O)C=C[C@]4(C)[C@@]3(F)[C@@H](O)C[C@@]12C [Fluocinonide]	109
CC(=O)OCC(=O)[C@@]12OC(C)(C)O[C@@H]1C[C@H]1[C@@H]3C[C@H](F)C4=CC(=O)C=C[C@]4(C)[C@@]3(F)[C@@H](O)C[C@@]12C [Fluocinonide (Vanos)]	91.9
c1ccc2c(CC3=NCCN3)cccc2c1 [Naphazoline hydrochloride]	103
CCN(CC)CC(=O)Nc1c(C)cccc1C [Lidocaine hydrochloride]	98.8
CC(=O)NS(=O)(=O)c1ccc(N)cc1 [Sulfacetamide Sodium]	111
CC(=O)NS(=O)(=O)c1ccc(N)cc1 [Sulfacetamide sodic hydrate]	98.2
Cc1cn([C@H]2C=C[C@@H](CO)O2)c(=O)[nH]c1=O [Stavudine]	109.2 ± 0.36
C=C1CC[C@@H]2[C@](C)(CO)[C@H](O)CC[C@@]2(C)[C@@H]1C/C=C1/C(=O)OC[C@H]1O [Andrographolide]	73.1
OCc1ccccc1O[C@@H]1O[C@H](CO)[C@@H](O)[C@H](O)[C@H]1O [Salicin (Salicoside, Salicine)]	103

Compound	nuclei count
CN1C(CCl)Nc2cc(Cl)c(S(N)(=O)=O)cc2S1(=O)=O (centres undefined) [Methyclothiazide]	101
C=CC1=C(C(=O)O)N2C(=O)[C@@H](NC(=O)/C(=N\O)c3csc(N)n3)[C@H]2SC1 [Cefdinir (Omnicef)]	92.3
C=CC1=C(C(=O)O)N2C(=O)[C@@H](NC(=O)/C(=N\O)c3csc(N)n3)[C@H]2SC1 [Cefdinir]	112
COc1ccc(NS(=O)(=O)c2ccc(I)cc2)cc1N1CCN(C)CC1	102
CNC(=O)c1cc(Oc2ccc(NC(=O)Nc3ccc(Cl)c(C(F)(F)F)c3)cc2)ccn1 [Sorafenib tosylate]	27
CNC(=O)c1cc(Oc2ccc(NC(=O)Nc3ccc(Cl)c(C(F)(F)F)c3)cc2)ccn1 [Sorafenib (Nexavar)]	92.9
CNC(=O)c1cc(Oc2ccc(NC(=O)Nc3ccc(Cl)c(C(F)(F)F)c3)cc2)ccn1 [Sorafenib]	85.4
COc1cccc2c1C(=O)c1c(O)c3c(c(O)c1C2=O)C[C@@](O)(C(C)=O)C[C@@H]3O[C@H]1C[C@H](N)[C@H](O)[C@H](C)O1 [Daunorubicin HCl (Daunomycin HCl)]	10.2
COc1cccc2c1C(=O)c1c(O)c3c(c(O)c1C2=O)C[C@@](O)(C(C)=O)C[C@@H]3O[C@H]1C[C@H](N)[C@H](O)[C@H](C)O1 [Daunorubicin hydrochloride]	12.3
Cn1cc(CCn2cnc(-c3cnn(C)c3)c2-c2ccc(C#N)cc2)cn1	92.9
CC(C)OC(=O)OCOP(=O)(CO[C@H](C)Cn1cnc2c(N)ncnc21)OCOC(=O)OC(C)C [Tenofovir Disoproxil Fumarate]	92.2
CCCN(C/C=C/I)C1CCc2cccc(O)c2C1 (centres undefined) [8-Hydroxy-PIPAT oxalate]	86.9
C[C@@H]1C[C@H]2[C@@H]3CCC4=CC(=O)C=C[C@]4(C)[C@@]3(F)[C@@H](O)C[C@]2(C)[C@@]1(O)C(=O)COP(=O)(O)O [Dexamethasone Sodium Phosphate]	109
Cc1cc(C)c(S(=O)(=O)Nc2ccccc2C(F)(F)F)c(C)c1	99.2
CC(C)[C@H](CO)Nc1nc(Nc2ccc(C(=O)O)c(Cl)c2)c2ncn(C(C)C)c2n1 [Purvalanol B]	94.2
COc1cc(COc2cc(N)c(Cl)cc2C(=O)CCC2CCN(CCNS(C)(=O)=O)CC2)cc(OC)c1	104
CC(C)(C)[N+]([O-])=Cc1ccc(S(=O)(=O)O)cc1S(=O)(=O)O	108
C[C@H](CCC(=O)NCCS(=O)(=O)O)[C@H]1CC[C@H]2[C@@H]3CC[C@@H]4C[C@H](O)CC[C@]4(C)[C@H]3C[C@H](O)[C@]12C [Taurodeoxycholic acid]	98.8
COC(=O)[C@@H]1CC2=CC(=O)CC[C@]2(C)[C@@]23O[C@@H]2C[C@@]2(C)[C@@H](CC[C@@]24CCC(=O)O4)[C@H]13 [Eplerenone]	104 ± 3.6
CC(C)OC(=O)C1=CN(C(=O)c2ccc(F)c(F)c2)CC(C)(C)c2c1[nH]c1ccccc21	107
CN1CCN(C(c2ccccc2)c2ccccc2)CC1 [Cyclizine hydrochloride]	108
Cc1ccc(F)c(NC(=O)Nc2ccc(-c3cccc4[nH]nc(N)c34)cc2)c1 [Linifanib (ABT-869)]	79.3
C[C@]12CC[C@@H]3c4ccc(OC(=O)c5ccccc5)cc4CC[C@H]3[C@@H]1CC[C@@H]2O [Estradiol Benzoate]	98.4

Compound	nuclei count
CCS(=O)(=O)N1CCC[C@@H]2CN3CCc4cc(OC)ccc4[C@@H]3C[C@@H]21	101
CN(c1nccc(=O)[nH]1)C1CCN(c2nc3ccccc3n2Cc2ccc(F)cc2)CC1 [Mizolastine]	104
O=C(O)c1ccccc1C(=O)Nc1ccc(S(=O)(=O)Nc2nccs2)cc1 [Phthalylsulfathiazole]	118
CC[C@H](CO)Nc1nc(NCc2ccccc2)c2ncn(C(C)C)c2n1 [Roscovitine (Seliciclib, CYC202)]	67.6
Cc1ccc(NC(=O)c2cccc(C(C)(C)C#N)c2)cc1Nc1ccc2ncn(C)c(=O)c2c1	89.2 ± 3.6
CC(CCCCC(=O)Nc1ccc(C(F)(F)F)cc1)NCCc1cnc[nH]1 (centres undefined) [HTMT dimaleate]	99.4
OCCN(CCO)c1nc(N2CCCCC2)c2nc(N(CCO)CCO)nc(N3CCCCC3)c2n1 [Dipyridamole]	98.26 ± 0.46
N#Cc1cc2nc(O)c(O)nc2cc1[N+](=O)[O-] [CNQX disodium salt]	90.9
COC(=O)C1=C(C#N)NC(C)=C(C(=O)OC(C)C)C1c1cccc([N+](=O)[O-])c1 (centres undefined) [Nilvadipine]	100
COC(=O)[C@H](NC(=O)c1cc(-c2ccccc2)nc2ccccc12)c1ccccc1	94.5
CC1CC(OC(=O)c2ccccc2O)CC(C)(C)C1 (centres undefined) [Homosalate]	102
CNc1nc(Nc2cn(C(C)(C)C#N)nc2C)ncc1C(F)(F)F	101
C[C@@H](CN1CCC(Cc2ccccc2)CC1)[C@@H](O)c1ccc(O)cc1 [Ro 25-6981 maleate]	102
COCCCN1CCC(NC(=O)c2cc(Cl)c(N)c3c2OCC3)CC1 [Prucalopride]	103
Nc1nc(-c2ccc(Cl)c(Cl)c2)c(-c2ccncc2)s1 [CGH 2466 dihydrochloride]	94.1
NC[C@@H]1O[C@@H](O[C@H]2[C@H](O)[C@@H](O[C@H]3O[C@H](CO)[C@@H](O)[C@H](N)[C@H]3O)[C@H](N)C[C@@H]2N)[C@@H](O)[C@H](O)[C@H]1O [Kanamycin A sulfate]	98.9
CCCCC/C=C/C=C1/C(=O)C=C[C@@H]1C/C=C\CCCC(=O)O [15-Deoxy-D12,14-prostaglandin J2]	85.6
N[C@@H](CS(=O)O)C(=O)O [L-Cysteinesulfinic acid]	102
O=C(Nc1ccncc1)c1cc([N+](=O)[O-])ccc1Cl	85.4
O=C(CCCN1CCN(c2ccccn2)CC1)c1ccc(F)cc1 [Azaperone]	85.2
CCCCCCNC(=O)Nc1ccc(S(=O)(=O)Nc2ccc(CCNC[C@H](O)COc3ccc(O)cc3)cc2)cc1	99.9
C[C@H](CCC(=O)O)[C@H]1CC[C@H]2[C@@H]3[C@@H](O)C[C@@H]4C[C@H](O)CC[C@]4(C)[C@H]3CC[C@]12C [Urosiol]	110
C[C@H](CCC(=O)O)[C@H]1CC[C@H]2[C@@H]3[C@@H](O)C[C@@H]4C[C@H](O)CC[C@]4(C)[C@H]3CC[C@]12C [Ursodiol (Actigal Urso)]	93.1
